According to the supplement of paper PMC11098506:
± gives the standard deviation of the averaged measurements. The list shows a part of the results.

B1: VDAC2; numbered along this chain (parent)
chain: MATHGQTCARPMCIPPSYADLGKAARDIFNKGFGFGLVKLDVKTKSCSGVEFSTSGSSNTDTGKVTGTLETKYKWCEYGLTFTEKWNTDNTLGTEIAIEDQICQGLKLTFDTTFSPNTGKKSGKIKSSYKRECINLGCDVDFDFAGPAIHGSAVFGYEGWLAGYQMTFDSAKSKLTRNNFAVGYRTGDFQLHTNVNDGTEFGGSIYQKVCEDLDTSVNLAWTSGTNCTRFGIAAKYQLDPTASISAKVNNSSLIGVGYTQTLRPGVKLTLSALVDGKSINAGGHKVGLALELEA

Variants of: B1
Assay: log2 fold difference of barcode abundance, GFP-BAK-high vs GFP-BAK-low sorted fraction (log2 ratio); higher = VDAC2 variant stabilises more GFP-BAK at mitochondria
Conditions: with BAK1 (mouse, GFP-tagged), Mcl1-/- Bax-/- Bak-/- Vdac2-/- MEF + GFP-mBAK
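Note: sorting relied on GFP fluorescence, which stays low in these cells lacking VDAC2 and climbs sharply once wild-type VDAC2 is expressed.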

Variant	log2 fold difference
K174M	-0.0485
F180V	-0.0426 ± 1
L175R	-0.0235 ± 0.84
K172P	0.133 ± 0.84
K174D	0.0155 ± 1.1
S173W	-0.644 ± 0.96
D169A	-1.07 ± 0.6
M166K	-1.3 ± 0.38
F168H	-0.69 ± 0.72
N178C	0.279 ± 0.64
F168T	-0.818 ± 0.87
K172W	-0.302 ± 0.96
A171P	0.514 ± 1.3
N178T	0.186 ± 0.87
K174A	0.102 ± 0.74
F180S	-0.649 ± 0.94
M166W	1.32 ± 0.81
S173G	0.799 ± 1
T167P	-0.524 ± 0.28
Q165A	0.454 ± 1.4
Q165V	-0.146 ± 0.8
A171R	-0.84 ± 0.74
D169E	-0.54 ± 0.48
K174F	0.43 ± 1.2
T176N	-0.844 ± 0.56
R177D	-0.0777 ± 0.87

Variant	log2 fold difference
N179W	0.186 ± 1.4
K172T	0.736 ± 0.74
S173Y	-0.238 ± 1.1
N179M	0.052 ± 1.2
R177C	-0.0847 ± 0.61
F180E	-1.02 ± 0.83
N179C	-0.411 ± 1.1
A171E	1.02 ± 0.69
K172M	0.394 ± 2.2
D169R	-0.636 ± 1.1
K172H	-0.582 ± 0.62
S170K	0.285 ± 0.86
N178Y	-0.494 ± 0.97
K174S	0.161 ± 1.2
T176W	-0.369 ± 0.4
D169C	0.481 ± 0.68
K174V	0.285 ± 0.8
K174C	-0.112 ± 0.67
M166E	-1.02 ± 0.77
S170L	-0.224 ± 0.99
N178F	0.462 ± 0.93
D169N	-0.758 ± 0.54
T176L	-0.656 ± 1.1
N178V	0.0386 ± 0.82
T176V	0.152 ± 1.1
N178S	-0.39 ± 1

Variant	log2 fold difference
S173T	-0.25 ± 0.8
K172D	0.116 ± 0.43
R177Y	0.732 ± 0.63
D169Q	-1.44 ± 0.75
R177N	0.309 ± 0.93
T167R	-0.172 ± 1.1
R177Q	-0.295 ± 1.5
S170H	-0.179 ± 1.5
F168K	-0.253 ± 1.1
Q165Y	-0.997 ± 1.9
R177H	-0.152 ± 0.72
F168P	-1.28 ± 0.72
F180N	-1.01 ± 0.55
R177F	0.109 ± 0.88
F180C	-0.0591 ± 0.88
D169I	-0.709 ± 0.91
K172I	0.817 ± 0.68
T167A	-0.638 ± 0.85
Q165F	0.391 ± 0.37
K172L	0.726 ± 0.58
D169H	0.00625 ± 1
N178A	0.461 ± 1.1
D169S	-1.04 ± 0.68
S173A	0.541 ± 0.97
K174Y	0.779 ± 0.77
K174H	0.284 ± 0.47

Variant	log2 fold difference
T176C	-0.0918 ± 0.84
N178L	0.307 ± 0.98
L175N	-0.199 ± 1.3
K172E	0.271 ± 0.97
L175F	0.19 ± 0.6
T176P	-0.128 ± 0.54
N179E	0.757 ± 0.61
K172F	0.891 ± 0.85
N179P	-1.44 ± 0.28
K172N	0.432 ± 0.58
S173P	-0.988 ± 0.82
T167G	-0.41 ± 0.98
A171C	0.631 ± 0.97
S170P	-0.99 ± 1.2
Q165D	-0.602 ± 0.7
D169M	0.201
R177G	0.346 ± 1.1
M166N	0.104 ± 0.77
L175T	0.333 ± 1
L175D	-0.751 ± 0.58
N178Q	0.722 ± 0.96
A171Y	-0.0538 ± 0.51
N178P	0.0578 ± 1.2
F180I	-0.117 ± 0.69
Q165I	0.601 ± 0.87
M166Y	-0.902 ± 0.41

Variant	log2 fold difference
L175A	-0.4 ± 1.1
T167N	-0.389 ± 1.1
S173L	-0.0284 ± 0.97
K174P	-0.467 ± 0.46
F168D	-0.818 ± 0.41
T176D	0.194 ± 0.64
M166I	0.468 ± 0.74
F180Y	-0.111 ± 1.1
S170I	-0.949 ± 2.4
S173R	-0.222 ± 0.86
F168V	-0.593 ± 1
F180T	-0.877 ± 1.1
F180M	-0.333 ± 0.58
N179V	0.0686 ± 1.1
K172A	-0.394 ± 0.97
T176K	-0.466 ± 1.3
R177A	-0.221 ± 1
D169P	-1.02 ± 1.3
T167D	-1.29 ± 0.21
M166R	-0.911 ± 0.78
T176H	-1.56
N179Y	-0.109 ± 0.79
